± gives the uncertainty stated by the source. The full ranking holds about 9,900 compounds; the median of “viability index relative to DMSO control” is about 1, and the lowest 2% start at about 0.85. This is one part of the list.

This assay has as its system Plasmodium falciparum NF54 stage V gametocytes. As to the kind of experiment: viability index relative to DMSO control (fraction); higher = less gametocyte killing. As to conditions: 2.5 µM, library set: Broad Institute DOS, incubation time: 72 h. The method in brief: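 Compound at 2.5 µM was incubated for 72 hr at 37°C under low oxygen with P. falciparum NF54 stage V gametocytes (0.75% gametocytemia, 1.25% hematocrit, 10 µl, serum-free screening medium) in 1,536-well plates. Staining used 3 µl of 2.5 µM MitoTracker Red CMXRos plus 0.13% saponin for one to two hours, and red particles of 20–70 µm2 were counted in one imaged field per well. Each viability index is that count relative to the plate mean of solvent-only wells.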
`CCS(=O)(=O)Nc1ccc2c(c1)C(=O)N(C)[C@H]1CC[C@H](CC(=O)NCc3ccccc3F)O[C@@H]1CO2` displayed a viability index of 1.15 ± 0.15.

Compound `C[C@@H]1CN([C@@H](C)CO)C(=O)c2cccc(NC(=O)c3nc4ccccc4s3)c2O[C@@H]1CN(C)C(=O)Nc1ccc2c(c1)OCO2` registered a viability index of 0.936 ± 0.13.

The compound `C[C@H]1CN([C@@H](C)CO)C(=O)c2cc(C3=CCCCC3)cnc2O[C@@H]1CN(C)S(=O)(=O)c1cn(C)cn1` returned a viability index of 1.07 ± 0.074.

As to `O=C(C[C@@H]1C[C@@H]2c3cc(NS(=O)(=O)c4ccc(F)cc4)ccc3O[C@@H]2[C@H](CO)O1)NCc1cccnc1`, the viability index came out at 1.065 ± 0.0092.

As to `C[C@H](NC(=O)C[C@H]1C=C[C@H](NC(=O)c2cccnc2)[C@H](CO)O1)c1ccccc1`, the viability index turned out to be 0.95 ± 0.065.

For `C[C@@H]1CN([C@@H](C)CO)C(=O)Cc2cc(NC(=O)C3CCCCC3)ccc2O[C@H]1CN(C)Cc1ccc(Cl)c(Cl)c1`, the viability index is 0.892 ± 0.028.

For `C[C@H]1C/C=C/C[C@@H](c2ccc3c(c2)OCO3)NC(=O)[C@H](C)N(C)C(=O)c2ccccc2O1.C[C@H]1C/C=C\C[C@@H](c2ccc3c(c2)OCO3)NC(=O)[C@H](C)N(C)C(=O)c2ccccc2O1`, the viability index was 0.967 ± 0.0031.

Consider `COCC(=O)Nc1ccc2c(c1)C(=O)N(C)[C@@H]1CC[C@@H](CC(=O)NCCCN(C)C)O[C@H]1CO2`, for which the viability index came to 0.9944 ± 0.0065.

`CCC(=O)N1C[C@H](O)COC[C@@H]2O[C@H](CC(=O)NCc3ccc(Oc4ccccc4)cc3)CC[C@H]21` had a viability index of 0.951 ± 0.11.

Compound `Cc1noc(C)c1S(=O)(=O)N(C)C[C@@H]1OCCCC[C@H](C)Oc2ccc(N(C)C)cc2C(=O)N([C@@H](C)CO)C[C@H]1C` had a viability index of 0.994 ± 0.018.

`Cc1noc(C)c1NC(=O)N[C@@H]1C=C[C@H](CC(=O)Nc2ccc(-c3ccccc3)cc2)O[C@@H]1CO` gave a viability index of 0.951 ± 0.063.

The compound `COc1ccc2c3c([C@@H](CO)N(C[C@]33CN(Cc4nccs4)C3)C(=O)CN(C)C)n(C)c2c1` displayed a viability index of 0.998 ± 0.1.

`CCN(C[C@H]1[C@H](c2ccc(C3=CCCCC3)cc2)[C@H](CO)N1CC1CC1)C(C)=O` came in with a viability index of 0.961 ± 0.084.

As for `O=C(Nc1ccc2c(c1)[C@H]1C[C@H](CC(=O)N3CCCCC3)O[C@H](CO)[C@H]1O2)NC1CCCCC1`, the viability index was found to be 0.998 ± 0.034.

On to `Cn1cnc(CCNC(=O)C[C@@H]2CC[C@H]3[C@@H](COC[C@H](O)CN3C(=O)Nc3ccc(C(F)(F)F)cc3)O2)c1`, for which the viability index turned out to be 0.96 ± 0.034.

Take `Cc1nn(C)cc1NC(=O)C[C@@H]1CC[C@H]2[C@@H](COc3ccc(NC(=O)C4CCOCC4)cc3C(=O)N2C)O1`: the viability index was found to be 1.04 ± 0.087.

In turn, `COCC(=O)N1[C@H](C(=O)Nc2ccccc2)[C@@H](CO)[C@@H]2Cn3c(ccc(-c4ccncc4)c3=O)[C@@H]21` came in with a viability index of 1.03 ± 0.057.

For the compound `O=C(Nc1cccc(Cl)c1)N[C@H]1CC[C@@H](CCn2cc(Cc3ccccc3)nn2)O[C@@H]1CO`, the viability index was determined as 1.14 ± 0.025.

The compound `CO[C@H](CN(C)S(=O)(=O)c1ccc(C)cc1)[C@H](C)CN(C(=O)Nc1ccccc1F)[C@H](C)CO` showed a viability index of 1.06 ± 0.026.

For `O=C(C[C@@H]1CC[C@H]2NC[C@H](O)COC[C@@H]2O1)Nc1ccc(-c2ccccc2)cc1`, the viability index is 0.92 ± 0.05.

In the case of `Cn1cnc(S(=O)(=O)N2C[C@H](O)COC[C@H]3O[C@H](CC(=O)NCc4cccc(F)c4)CC[C@@H]32)c1`, the viability index worked out at 1.04 ± 0.083.

The compound `O=C(CCN1CCCCC1)NCC[C@H]1CC[C@@H](NS(=O)(=O)c2cccc(Cl)c2)[C@@H](CO)O1` displayed a viability index of 0.94 ± 0.026.

On to `COc1ccc(NC(=O)N(C)C[C@@H]2Oc3c(NS(=O)(=O)c4c(C)noc4C)cccc3C(=O)N([C@@H](C)CO)C[C@@H]2C)cc1`, for which the viability index amounted to 0.9184 ± 0.007.

As to `COc1ccc(S(=O)(=O)N2C[C@H](O)COC[C@@H]3O[C@@H](CC(=O)N[C@@H]4CCN(Cc5ccccc5)C4)CC[C@H]32)cc1`, the viability index worked out at 1.03 ± 0.14.

Take `CN1C(=O)c2cc(NC(=O)c3cnccn3)ccc2OC[C@H]2O[C@@H](CC(=O)NCC3CCCCC3)CC[C@@H]21`: the viability index turned out to be 0.9938 ± 0.0065.

The compound `COCC(=O)N1C[C@H]2[C@@H](c3ccccc31)[C@@H](CO)N2C(=O)c1ccccc1F` returned a viability index of 1.05 ± 0.095.

As for `CCC(=O)N(C)C[C@@H]1[C@@H](c2ccccc2)[C@H](CO)N1Cc1cccnc1`, the viability index was determined as 1.0474 ± 0.00016.

The compound `C[C@@H]1C/C=C/C[C@H](c2ccc3c(c2)OCO3)NC(=O)[C@H](C)N(C)C(=O)c2ccccc2O1.C[C@@H]1C/C=C\C[C@H](c2ccc3c(c2)OCO3)NC(=O)[C@H](C)N(C)C(=O)c2ccccc2O1` displayed a viability index of 1.04 ± 0.2.

Take `C/C=C/c1ccccc1[C@@H]1[C@H](C#N)N(c2ncc(CC)s2)[C@H]1CO`: the viability index is 1.08 ± 0.068.

On to `O=C1CCCc2cnnn2COC[C@H](Cc2ccccc2)N1`, for which the viability index was determined as 1.01 ± 0.054.

As for `CO[C@H]1CN(C)C(=O)c2cc(NC(=O)Cc3ccccc3)ccc2OC[C@H](C)N(C(=O)c2ccccc2F)C[C@H]1C`, the viability index amounted to 1.04 ± 0.03.

Regarding `C[C@@H]1CN([C@@H](C)CO)C(=O)c2cccc(NC(=O)c3ccncc3)c2O[C@@H]1CN(C)Cc1ccc2c(c1)OCO2`, the viability index was 1.0317 ± 0.00039.

In turn, `CO[C@@H]1CN(C)C(=O)c2cc(NS(=O)(=O)c3cccc(Cl)c3)ccc2OC[C@@H](C)NC[C@H]1C` gave a viability index of 1.03 ± 0.026.

As to `O=C(NC1CCCC1)[C@@H]1[C@@H](CO)[C@@H]2Cn3c(cccc3=O)[C@@H]2N1CCc1ccccc1`, the viability index is 1.06 ± 0.095.

Regarding `O=C1N[C@@H](c2ccccc2)COCn2nncc2CC[C@@H]1Cc1ccccc1`, the viability index was found to be 1 ± 0.045.

`Cc1ccc(OC(=O)N(C)C[C@H]2OCc3ccccc3-c3ccccc3C(=O)N([C@@H](C)CO)C[C@@H]2C)cc1` had a viability index of 0.996 ± 0.045.

`COc1cccc(CN2CCCCN3[C@@H](CO)[C@@H](c4ccc(-c5ccccc5OC)cc4)[C@@H]3C2)c1`: the viability index was 0.858 ± 0.018.

`C[C@@H]1CCCCO[C@H](CN(C)S(=O)(=O)c2ccc(Cl)cc2)[C@@H](C)CN([C@@H](C)CO)C(=O)c2cc(NC(=O)Nc3ccc(C(F)(F)F)cc3)ccc2O1` showed a viability index of 1.08 ± 0.17.

Compound `C[C@@H]1CN([C@H](C)CO)C(=O)c2cc(NC(=O)Nc3ccc(C(F)(F)F)cc3)ccc2O[C@@H](C)CCCCO[C@@H]1CN(C)CC1CCCCC1` showed a viability index of 1.01 ± 0.049.

`O=C(NC1CCCC1)N[C@@H]1C=C[C@H](CC(=O)N2CCOCC2)O[C@@H]1CO`: the viability index amounted to 1.17 ± 0.036.

In turn, `CS(=O)(=O)N1CC(=O)N2[C@H](CO)[C@@H](c3ccc(C#Cc4ccc(F)cc4)cc3)[C@H]2C1` returned a viability index of 1.01 ± 0.0094.

Regarding `O=C1CCCCn2nncc2COC[C@@H](Cc2ccccc2)N1`, the viability index worked out at 1.02 ± 0.017.

For the compound `CCCNC(=O)N1[C@@H](C#N)[C@@H](c2ccc(-c3ccccc3F)cc2)[C@@H]1CO`, the viability index was determined as 1.11 ± 0.021.

Turning to `N#C[C@H]1[C@H](c2ccc(-c3cccc(F)c3)cc2)[C@H](CO)N1C(=O)NC1CCCC1`, the viability index stood at 1.01 ± 0.12.

`COc1ccc(NC(=O)N2CC(=O)N3[C@H](C2)[C@H](c2ccc(Br)cc2)[C@@H]3CO)cc1`: the viability index came to 1.03 ± 0.065.

Consider `O=C(C1CCCCC1)N1[C@H](CO)[C@H]2c3ccccc3NC[C@H]21`, for which the viability index is 1.07 ± 0.032.

In the case of `C[C@@H]1CN([C@H](C)CO)S(=O)(=O)c2ccc(-c3cccc(C#N)c3)cc2O[C@H]1CN(C)C(=O)c1ccccc1`, the viability index worked out at 0.98099 ± 0.00081.

As to `COc1ccc2c([nH]c3[C@H](CO)N(Cc4ccc(F)cc4)C[C@]4(CCN(CC4)Cc4ccccn4)c23)c1`, the viability index stood at 1.01 ± 0.028.

In turn, `COc1ccc(NC(=O)N2CC[C@@]3(CC2)CN([C@@H](CO)c2c3c3ccc(OC)cc3n2C)C(=O)C2CCC2)cc1` had a viability index of 0.897 ± 0.041.

Consider `O=C(C[C@@H]1CC[C@@H]2[C@H](COC[C@H](O)CN2S(=O)(=O)c2ccc(F)cc2)O1)NCCN1CCCCC1`, for which the viability index stood at 1.05 ± 0.11.

`C[C@H]1CN([C@@H](C)CO)C(=O)c2cc(NC(=O)Nc3cccc4ccccc34)ccc2O[C@@H]1CN(C)S(=O)(=O)c1cccs1`: the viability index worked out at 1.06 ± 0.026.

`C/C=C/c1ccc([C@@H]2[C@@H]3CN(S(=O)(=O)c4ccccc4F)C[C@H]2N3)cc1` came in with a viability index of 0.904 ± 0.016.

`C[C@H](CO)N1C[C@H](C)[C@@H](CN(C)Cc2cccnc2)Oc2ncc(-c3ccc(C#N)cc3)cc2C1=O`: the viability index came out at 1.05 ± 0.034.

Compound `CC(C)CC#Cc1ccc([C@@H]2[C@H](CO)N3C(=O)CN(C(=O)Nc4cc(F)ccc4F)C[C@@H]23)cc1` came in with a viability index of 1.04 ± 0.023.

In the case of `CN1C(=O)c2cc(NC(=O)C3CCOCC3)ccc2OC[C@@H]2O[C@H](CC(=O)NCC3CCCCC3)CC[C@H]21`, the viability index turned out to be 1.07 ± 0.11.

In turn, `CO[C@@H](CN(C)C(=O)c1cc(Cl)cc(Cl)c1)[C@@H](C)CN(C(=O)Nc1ccc(F)cc1)[C@@H](C)CO` registered a viability index of 1.04 ± 0.018.

On to `COCCNC(=O)c1cc2c(c(-c3cccc(C4=CCCCC4)c3)n1)[C@@H](CCO)N([S@](=O)C(C)(C)C)C2`, for which the viability index stood at 0.982 ± 0.13.

Take `CCS(=O)(=O)N1[C@H](CO)[C@H](c2ccc(-c3cccc(F)c3)cc2)[C@@H]1C#N`: the viability index stood at 1.065 ± 0.0011.

Compound `CC(C)NC(=O)N(C)C[C@H]1Oc2c(NS(=O)(=O)c3cccs3)cccc2C(=O)N([C@@H](C)CO)C[C@@H]1C` had a viability index of 0.941 ± 0.042.

The compound `CCC(=O)N1CC(=O)N2[C@H](CO)[C@H](c3ccc(C#CCC(C)C)cc3)[C@@H]2C1` gave a viability index of 0.971 ± 0.027.

The compound `OC[C@H]1[C@@H](c2ccc(C#Cc3ccccc3F)cc2)[C@H]2CN(CC3CCOCC3)CCCCN21` displayed a viability index of 0.938 ± 0.011.

The compound `CNC[C@@H]1OCCCC[C@@H](C)Oc2ccc(N)cc2C(=O)N([C@@H](C)CO)C[C@H]1C` returned a viability index of 1.06 ± 0.032.

`C/C=C/c1ccc2n(c1=O)C[C@H]1[C@H](CO)[C@@H](C(=O)N[C@@H](C)c3ccccc3)N(C(=O)c3ccccn3)[C@@H]21.C/C=C\c1ccc2n(c1=O)C[C@H]1[C@H](CO)[C@@H](C(=O)N[C@@H](C)c3ccccc3)N(C(=O)c3ccccn3)[C@@H]21` displayed a viability index of 1.065 ± 0.0094.

`CC(C)C#Cc1ccc([C@H]2[C@H](CO)N3C(=O)CN(C(=O)c4ccc5c(c4)OCO5)C[C@@H]23)cc1` returned a viability index of 1.07 ± 0.082.

Consider `OC[C@@H]1[C@H](c2ccccc2)C2(CN(Cc3ccccc3F)C2)N1Cc1ccccc1F`, for which the viability index was found to be 1.03 ± 0.043.

Turning to `COc1ccccc1-c1ccc([C@H]2[C@H](C#N)N[C@@H]2CO)cc1`, the viability index amounted to 1.05 ± 0.026.

`O=C(C[C@H]1CC[C@H]2[C@@H](COC[C@@H](O)CN2CC2CCOCC2)O1)NCC1CCCCC1` displayed a viability index of 0.987 ± 0.03.

For the compound `Cc1ccc(S(=O)(=O)N(C)C[C@@H]2OCCCC[C@H](C)Oc3ccc(NC(=O)c4ccncc4)cc3C(=O)N([C@H](C)CO)C[C@H]2C)cc1`, the viability index was determined as 1.07 ± 0.018.

The record behind these values is the supplement of paper PMC4723716.
